± gives the standard deviation of the averaged measurements. The list shows a part of the results.
System: PfAP2-G AP2 domain (GST-tagged)
Assay: gcPBM binding intensity (ln(normalized median fluorescence intensity)); higher = stronger DNA binding
Method in brief: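 DNA-binding domains from P. falciparum, fused to GST and produced in E. coli, were put on an Agilent 4 × 180k double-stranded probe array for 1 h in 1× PBS holding 1% milk, 0.2 mg/ml BSA, 0.5% salmon testes DNA and 0.03% Triton X-100. Probes were primer-extended, 36 bp long and drawn from intergenic genomic regions, with negative controls included. After Alexa488 anti-GST antibody detection and a 488 nm scan, binding intensity was set as the highest Masliner-normalised natural-log median intensity across replicate spots of either probe orientation.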

| Sequence | gcPBM binding intensity (ln) |
| --- | --- |
| AATATATATATGTGTACACATCCAAAATAGGCATAC [CACACA_site5705] | 11.7 ± 1.1 |
| ATAACGGAAAAAAAAAGTACATGATATAAACATGAA [XGTACX_site8428] | 11.2 ± 0.75 |
| TTTTTTTTTTTTTTTTTTTTTTTTCATTTGATATTA [TGCATGCA_negctrl_site112] | 9.54 ± 0.45 |
| TTTGTATTAAAAAAAAAAAAAAAAAAAATGAATAAA [TGCATGCA_negctrl_site292] | 9.58 ± 0.2 |
| TTATTTATTCTATGTGCATGTTATTTTTTTTTTTCG [TGCATGCA_site262] | 9.865 ± 0.064 |
| AAAAATAAGATATATACACACATATAAATATAAATA [CACACA_site7396] | 9.74 ± 0.14 |
| TATATATATATATGTGGTACATAAAATTATTATTTT [XGTACX_site4554] | 11.3 ± 0.78 |
| ATAAAATTATCTACATGTACTCATATATATTTGTTT [XGTACX_site5911] | 11.2 ± 0.67 |
| AGAGAGAAAGTTATAACATGCAACAATTTTTAGAAG [TGCATGCA_site1] | 9.8 ± 0.071 |
| CTTTAAACCCTGAACACACACAAATACACCCAAAAA [CACACA_site4297] | 10.7 ± 0.54 |
| AAAAAAAAAAAAAACACACAGAAATATATATATATT [CACACA_site832] | 9.82 ± 0.33 |
| AAAGGAAAAGTTGACTGTACATAAGTAAAAAATAAT [XGTACX_site788] | 11 ± 0.35 |
| TTTATACAAATATGTACACACTAAATATATATTATG [CACACA_site4413] | 11.5 ± 0.77 |
| ATTCATTCCATACTTTAACACACAAATATATTTAAT [CACACA_site7930] | 10.17 ± 0.085 |
| ATATTATACGCATATGTGCGCATACATTTTTTTGCA [GTGCAC_site9540] | 10.22 ± 0.035 |
| TTATTTACAAAACAAATCAAAATATCCAAAAGAATA [CACACA_negctrl_site1789] | 9.825 ± 0.007 |
| GAAATTACTTTATAAACACACATTTATTTTATTTTA [CACACA_site7007] | 9.79 ± 0.17 |
| GGCATATATATATGCACACATACATATATACATGTG [CACACA_site3859] | 10.4 ± 0.2 |
| TACACATACAGACATACACACATACCCATATACTCA [CACACA_site5037] | 10.07 ± 0.099 |
| TTTTTGTAACCGATTCTGCACTGAGAAGCACATATA | 10.2 ± 0.2 |
| AGATTGTAAGTAAACACACACACATATATATGTATA [CACACA_site675] | 9.965 ± 0.064 |
| TCATATTTATATAAATGTACTTAATTGGTTTCTTTA [XGTACX_site7848] | 11.1 ± 0.61 |
| ATGTTATTAATAATTGCACACATTTTTTTTTTTTTT [CACACA_site3920] | 10.06 ± 0.021 |

| Sequence | gcPBM binding intensity (ln) |
| --- | --- |
| CTTAAAATATATTTAGTGCATATACTAATATATTAT | 9.875 ± 0.049 |
| TATATATATATATTATGTACATATATAAATTAACAT [XGTACX_site3368] | 11.2 ± 0.83 |
| AATATAGGAATATGCACACATATATACATACATACA [CACACA_site1521] | 10.3 ± 0.2 |
| TTTTTTAAAGTTTAAAGTACATATAAAAATATATAA [XGTACX_site5267] | 11 ± 0.67 |
| AAAAAAATAAAATATATATATATATATATATATATA [GTGCAC_negctrl_site706] | 9.96 ± 0.89 |
| TATATATGGATATATACACACAACGGTTATAAATAT [CACACA_site6655] | 10.095 ± 0.007 |
| ATAAATTCATACATTTGTACACAAAAAAAAAAAAAA [XGTACX_site2435] | 11.3 ± 1.1 |
| CCTTATACGATATTATGTACGCATATGTGCATTTTT [XGTACX_site1570] | 11.5 ± 1 |
| AATTAATAAAAAAGGTGTACAGTAAATGCAATAATC [XGTACX_site7956] | 11.7 ± 0.99 |
| TCTTTTATATATAATAATTATATATAACATTCAAAC [GTGCAC_negctrl_site112] | 9.93 ± 0.099 |
| GTTAATCACCATGTGGTGCATATAAGGGCATATTAT [GTGCAC_site9748] | 10.4 ± 0.23 |
| TATTATATAATATACTGTACAATATCCATTATTTAC [XGTACX_site7091] | 10.7 ± 0.4 |
| TATATTTACTTATATGCACACATAAATGTGAATTAT [CACACA_site9258] | 9.89 ± 0.085 |
| ACATATAATAAAATAGTGCATTGTTAGTTTTATATA | 9.875 ± 0.021 |
| ATATATATATATTTATGTACATATTATTTATTCTTT [XGTACX_site6567] | 11.4 ± 0.59 |
| ATTATTTGATTAAAGGTGCAAGGATAATAATAAAAC | 10.3 ± 0.17 |
| TAATGGTATAAAAAATGTACATGTTTTTTTACAATT [XGTACX_site4285] | 11.2 ± 0.54 |
| AATTTTTTTTAATGATGTACTTTTTGAAAATAAACT [XGTACX_site4221] | 11.3 ± 0.85 |
| TTTTCTTTTTCTTGTACACACATAATATGGATGAAA [CACACA_site808] | 11.4 ± 0.7 |
| AAATAAATACATAATACATGCATATTTAATATATAG [TGCATGCA_site135] | 9.71 ± 0.13 |
| GTACAATCATATACTACATGCAGTTTTTTTTATTGA [TGCATGCA_site230] | 10.6 ± 0.28 |
| TAAAGAAACGCATCGACGCACACTACAAAATAAAAA [CACACA_site1348] | 10.2 ± 0.2 |
| TTTTTATTTTTTCAGTGTACATTTAAATTATCTTAT [XGTACX_site3905] | 11.4 ± 0.76 |

| Sequence | gcPBM binding intensity (ln) |
| --- | --- |
| ATATATATATATATTTATTCATATATTTTTTGTCTT [TGCATGCA_negctrl_site58] | 10 ± 0.71 |
| TTACTTTTTTTTTTATGTACTTATATTTTTTACACT [XGTACX_site3503] | 11.4 ± 0.73 |
| TATGAATACATTTGTTGTACTTAAATTTCCTTTATT [XGTACX_site5374] | 11.4 ± 0.79 |
| AAATAATTTATGCATACACACATATATATATATATA [CACACA_site4020] | 10.2 ± 0.35 |
| TATAAATATCTGAATTGTACAGGTGAAAAAAAAAAT [XGTACX_site1867] | 10.7 ± 0.38 |
| TTTTTTATTATTATTATTTTTTATGTATAATAATGT [CACACA_negctrl_site631] | 9.7 ± 0.13 |
| TAGATATATAAATACACACACATACACAAAAAAAAA [CACACA_site7652] | 10.4 ± 0.35 |
| AAAAAAAAAAAAAAAAATATATTTATGAAATAAAAA [TGCATGCA_negctrl_site262] | 10.3 ± 0.19 |
| TATTTTTTTTTTTTTTTTTTTTTTATATATACATAT [CACACA_negctrl_site23] | 9.48 ± 0.085 |
| TATAAACGTATAATATGTACACACACATATATACAA [XGTACX_site1686] | 11.3 ± 0.94 |
| ATTATATAGAATTGTACATGCGAATTGTATAACGAT [TGCATGCA_site125] | 11 ± 0.71 |
| TTTCTATTCCATTCAACACACAAAAATGTATGCTTT [CACACA_site1072] | 9.96 ± 0.13 |
| AATGGATATTTCTTTATATATATCTTATTTGATTAT [XGTACX_negctrl_site284] | 9.62 ± 0.16 |
| TATACATGTATATATTGTACATATGTTTTTTTTACA [XGTACX_site3300] | 11 ± 0.5 |
| TTTTTTCAAATTTTCTTTTTTCTTTTGTTTTTTTTG [CACACA_negctrl_site380] | 9.21 ± 0.42 |
| TTACTCATGAAAGATACACACATTCGTTATTTATAT [CACACA_site7517] | 10.07 ± 0.092 |
| TTTTTATAATGATACATATATTATTTTATTCTTAAT [CACACA_negctrl_site124] | 9.65 ± 0.17 |
| TTTTTCTTTCTATTTATCAATATTAAAAAAAAAAAA [CACACA_negctrl_site1629] | 9.94 ± 0.52 |
| CTTGTAGATATAAAATGTACAAAAATAAATTGCACA [XGTACX_site4409] | 10.7 ± 0.54 |
| AGATATTCTACTATGTGTACATATATATATATAATT [XGTACX_site5060] | 11.4 ± 0.76 |
| ATTATTATTAATCTTGTGCACATATATTTTAATTAG | 10.3 ± 0.14 |
| GAAGAAGTTTAAAAAGCACACAAAAAAAAAAAAAAA [CACACA_site9088] | 9.87 ± 0.49 |
| CACAAAATAAATTAAACACACAACATCATATATGTA [CACACA_site846] | 10.04 ± 0.049 |

| Sequence | gcPBM binding intensity (ln) |
| --- | --- |
| TAAATTATTATCCCCTCACACACAAAAATAAAAAGA [CACACA_site2886] | 10.5 ± 0.45 |
| TATTTATAAACATACGCACACATTAATATATATATA [CACACA_site9314] | 10.2 ± 0.18 |
| TCTTATGATGGAATGTTAAATATTACATTTTGTTTA [TGCATGCA_negctrl_site503] | 9.51 ± 0.22 |
| TAAGATATAAAAAATGTGCACATTAAAGTATTAATT | 10.3 ± 0.13 |
| TGTTATTCTGCATATACACACAAATAACAATTTAAA [CACACA_site6943] | 10.1 ± 0.23 |
| TAATGTTTCAAAATTTAATATACTACAAATATTATA [TGCATGCA_negctrl_site336] | 9.93 ± 0.41 |
| ATGAACATCCAATATACACACATATATATTTATATT [CACACA_site829] | 9.97 ± 0.057 |
| TTTATATAGAAACACACACACAAAAAAAAAAAAAAA [CACACA_site2646] | 9.81 ± 0.43 |
| TTACAAAAAAAAAGGCGCGGATGGGGGCAATAGCAA [CACACA_negctrl_site238] | 10.6 ± 0.55 |
| CAAAAAAAAAAAAAAACACACATTAAATTATAAAGA [CACACA_site2613] | 9.685 ± 0.064 |
| TATAATATGACAAGAAGTACATATATTTACATATAT [XGTACX_site1571] | 11.2 ± 0.85 |
| ATATAATATTTTAGAGTGCACCGATAACAATAAATA [GTGCAC_site9754] | 10.4 ± 0.4 |
| CACATATATACACATACACACACACCCATACACCCA [CACACA_site8505] | 10.5 ± 0.39 |
| TTTACATTTTAGGAAGTGCATATAATAAATACTATC | 10.1 ± 0.2 |
| TACATAAATACATACACACACATATAACCAATGTAG [CACACA_site5243] | 10.3 ± 0.11 |
| ATCACATTCCACGGTACACACTAAAAGAAAAATCAG [CACACA_site5907] | 11 ± 0.78 |
| ATTTATATTTAATATACACACATTATTTTTTTATAT [CACACA_site574] | 9.955 ± 0.021 |
| AGAGTACAAGTAAATACACACATATATATGAAAATA [CACACA_site1079] | 10.9 ± 0.61 |
| ACAAAATTTACAAAATGTACAAAATATACAAAATGT [XGTACX_site3543] | 10.6 ± 0.28 |
| TATATGTGGGTTTTTTTTATGTGTTTTTCTTTTTTT [CACACA_negctrl_site936] | 10.2 ± 0.18 |

— the supplement of paper PMC11417369
